Source: PubChem BioAssay AID686971 (National Center for Advancing Translational Sciences (NCATS), 2013)
About 7,500 (2.1%) of roughly 360,000 compounds were called active. The inconclusive results got no clear call from the source; some entries with a clear call stand among them for comparison. The call rests on the fitted dose curve; in most records, active means well fitted cell-killing curve with a large enough effect; inconclusive means small, poorly fitted or top-dose-only effect, or effect the other way, or another doubt; inactive means no such curve, though single readings can be large or run the other way. Potencies of inconclusive entries are left out as doubtful fits.

Experiment: qHTS for induction of synthetic lethality in tumor cells producing 2HG: qHTS for the HT-1080-IDH1KD cell line;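 on activity, negative = toxicity: 0% = DMSO wells and -100% = cell-free medium wells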
Conditions: HT-1080 IDH1 knockdown viability, ATP luminescence, 48 h; activity, negative = toxicity: at 46.1 µM (top of the series) unless noted
Procedure, shortened: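 Viability of IDH1-knockdown HT-1080 fibrosarcoma cells was assessed by CellTiter-Glo after 48 h at 37 °C with titrated compound; concentration-effect curves were classified by fit quality and response size.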
Potency means the concentration at half of the fitted maximal effect; tags describe the fitted curve by direction and shape.

Compound	activity, negative = toxicity	Potency
O=c1c2ccccc2oc2cc(-c3ccc(CN4CCOCC4)cc3)ccc12	inactive: -20.5%	
Cc1ccnc2c1ccc1cccnc12		inconclusive [cytotoxic, full curve, poor fit]
BrC(=C\c1ccccc1)/C=N/n1cnnc1		active: 20.6 µM
Cc1cc(NC(=O)c2ccc(Br)o2)ccc1NC(=O)c1ccco1		inconclusive [cytotoxic, single point]
O=C(CCc1ccccc1)NNC(=O)c1ccccc1Br		inconclusive [rising, partial curve]
CC(C)OC(=O)NCCOC(=O)Nc1ccc(Cl)cc1	inactive: -0.327%	
CCc1cc2c(=O)c(-c3ccc4c(c3)OCCO4)coc2cc1OS(C)(=O)=O		inconclusive [cytotoxic, partial curve]
O=C(N/N=C/C=C/c1ccccc1)C1CC1c1ccccc1 (stereo not drawn)		inconclusive [cytotoxic, partial curve]
OCCN1CCN(c2cnc(-c3ccsc3)cn2)CC1		inconclusive [rising, partial curve]
CC(C)N(C(=O)Cn1cc(S(=O)(=O)CC(=O)Nc2ccccc2)c2ccccc21)C(C)C	inactive: -13.4%	
CC(=O)c1ccc(Nc2nc(C(N)Cc3ccc(Cl)cc3)cs2)cc1 (stereo not drawn)		inconclusive [cytotoxic, single point]
COc1ccc(-n2sc3c(c2=S)-c2cc(OC)ccc2NC3(C)C)cc1		inconclusive [cytotoxic, single point]
COc1ccc(CNC(=O)c2ccc3c(=O)n(-c4ccccc4)c(=O)[nH]c3c2)cc1	inactive: 15.7%	
COC(=O)c1sc2ccccc2c1-n1cccc1C(=O)C(=O)Nc1ccc(OC)cc1	inactive: -9.96% [at 9.24 µM]	
O=C(COC(=O)C1=NN(c2ccccc2)C(=O)CC1)Nc1nc(-c2ccc(F)cc2)cs1	inactive: -16.8%	
CCc1nnc(NC(=O)c2oc3cc(C)c(C)cc3c2C)s1	inconclusive: 33.5%	
Cc1cc(C)nc(SCc2ccc(C(=O)NNC(=O)Nc3cccc(Cl)c3)cc2)n1		inconclusive [cytotoxic, single point]
COC(=O)[C@@]12C[C@@H](CC(=O)NCCCCc3ccccc3)C(=O)N(Cc3ccco3)C1=CCC(C)(C)C2		inconclusive [cytotoxic, single point]
CCC(Oc1ccccc1)C(=O)OCC(=O)Nc1sccc1C(N)=O (stereo not drawn)	inactive: -3.07%	
O=C(CNc1ccc(C(F)(F)F)cc1)Nc1cccc(S(=O)(=O)N2CCCCC2)c1		inconclusive [cytotoxic, single point]
CCc1nc2c(OCC(N)=O)cccn2c1N(C)C(=O)c1ccc(OC)cc1	inactive: 3.04%	
CCN(CC)c1ccc(NC2=C(Cl)C(=O)c3ccccc3C2=O)cc1		inconclusive [cytotoxic, single point]
CCOC(=O)c1ccc(NC(=S)N(CCCN2CCCCC2)Cc2ccco2)cc1		inconclusive [cytotoxic, partial curve, poor fit]
CCOc1ccc(S(=O)(=O)NCc2ccccn2)cc1NC(=O)c1ccccc1F		inconclusive [cytotoxic, full curve]
CCc1ccccc1NS(=O)(=O)c1ccc2[nH]cc(C(=O)NC3CCCC3)c(=O)c2c1		active: 18.4 µM

Compound	activity, negative = toxicity	Potency
CC(NC(=O)C12CC3CC(CC(C3)C1)C2)c1ccc(F)cc1 (stereo not drawn)	inactive: -1.98%	
O=C(NCc1ccccc1)c1c[nH]c2cc3c(cc2c1=O)OCCO3		inconclusive [cytotoxic, single point]
O=C(NCCN1CCOCC1)c1ccccc1N1C(=O)[C@@H]2Cc3c([nH]c4ccccc34)C(c3ccccc3)N2C1=O (stereo partly drawn)	inactive: -13.3%	
Cc1cccc(NC(=O)CSCC(=O)Nc2cc(Cl)ccc2N2CCN(C)CC2)c1		active: 14.6 µM
CCn1cnc2cc(NCc3ccncc3)ccc21		inconclusive [rising, single point]
COc1ccc(C2/C=C\CN(C(=O)Nc3ccc(C(F)(F)F)cc3)CC(=O)N2Cc2ccc(F)cc2)cc1 (stereo not drawn)		inconclusive [cytotoxic, single point]
CC(=O)Nc1ccc(S(=O)(=O)N2CCC(N3CCCCC3)CC2)cc1	inactive: 13.7%	
Cc1cc(C)c(O)c(-c2n[nH]c3c2C(c2cccc(O)c2)N(Cc2ccco2)C3=O)c1 (stereo not drawn)		inconclusive [cytotoxic, single point]
O=C(Nc1cccnc1)c1ccc([N+](=O)[O-])o1		inconclusive [cytotoxic, single point]
CCOC(=O)CC(=O)CSc1nc(-c2ccccc2)cc(-c2ccc(Cl)cc2)c1C#N		inconclusive [cytotoxic, single point]
COc1ccc(Br)cc1CN(C)CC(=O)Nc1cccc(S(N)(=O)=O)c1	inactive: 5.22%	
Nc1nc(SCc2ccc(F)cc2)ns1	inactive: -20.1%	
COc1ccc(OC)c(NS(=O)(=O)c2ccc(SC)cc2)c1		inconclusive [cytotoxic, partial curve]
Cc1ccc(-n2nc3ccc(NC(=O)c4cccc([N+](=O)[O-])c4C)cc3n2)cc1		inconclusive [cytotoxic, partial curve]
CCC(C)NC(=O)c1c(N)n(/N=C/c2cccnc2)c2nc3ccccc3nc12 (stereo not drawn)		inconclusive [cytotoxic, single point]
CCn1c(SCC(=O)Nc2nccs2)nnc1-c1cc2cccc(OC)c2o1	inactive: 17.5%	
c1ccc(N2CCN(c3ncnc4c3oc3ccccc34)CC2)cc1	inactive: 6.55%	
CC(CCOS(N)(=O)=O)c1ccccc1 (stereo not drawn)	inactive: -3.48%	
COc1ccc(-c2nc3ccc(C)cn3c2Cc2cccc(F)c2)cc1OC		inconclusive [cytotoxic, single point]
CSc1ccc(S(=O)(=O)Nc2ccc(F)cc2)cc1		inconclusive [cytotoxic, single point]
COc1cccc(Nc2nc(C(N)Cc3ccc(C(F)(F)F)cc3)cs2)n1 (stereo not drawn)		active: 23.1 µM
COc1ccc(C(=O)Nc2ccccc2C(=O)Nc2cc(C)ccn2)cc1		inconclusive [cytotoxic, single point]
CCOC(=O)C1CCN(S(=O)(=O)c2ccc(CC)cc2)CC1	inactive: 4.61%	
COC(=O)N1CCc2c(sc(NC(=O)C3=COCCO3)c2C#N)C1		active: 3.66 µM
Cc1ccccc1-c1nc(CN2CCC(C(=O)NCCCN3CCCC(C)C3)CC2)c(C)o1 (stereo not drawn)		active: 9.2 µM

Compound	activity, negative = toxicity	Potency
CC(=O)Nc1ccc(S(=O)(=O)NC2=C(N3CCN(c4ccc(F)cc4)CC3)C(=O)c3ccccc3C2=O)cc1		inconclusive [cytotoxic, single point]
CC12CCC(CC1O)C2C(=O)O (stereo not drawn)	inactive: 7.06%	
Cc1cccc(C2CC(c3ccccc3)Nc3ncnn32)c1 (stereo not drawn)	inconclusive: -0.987%	
O=C(CCOc1ccccc1)Nc1ccccc1	inactive: -1.48% [at 9.24 µM]	
CCCOC(=O)c1ccc(NC(=O)c2nc3nc(C)cc(C)n3n2)cc1	inactive: 20.7%	
O=C(Cn1ncc(Cl)c(Cl)c1=O)c1ccc(Cl)cc1		inconclusive [cytotoxic, single point]
Cc1ccc(S(=O)(=O)N(C)c2ccc(OCC(=O)Nc3nc4ccccc4s3)cc2)cc1		inconclusive [cytotoxic, single point]
COc1ccc(-c2c3c(=O)n(C)c(=O)n(C)c3cn2N2CCOCC2)cc1	inactive: -4.61%	
COc1ccc(S(=O)(=O)N2CCCCCC2)cc1N(C)S(=O)(=O)c1ccc(Cl)cc1	inactive: -9.76%	
CCOc1ccc(Br)cc1S(=O)(=O)Nc1ccc(C(=O)OC(C)C(=O)N(C)c2ccccc2)cc1 (stereo not drawn)		inconclusive [cytotoxic, single point]
c1c2c(cc3sc(N4CCOCC4)nc13)OCCO2		inconclusive [cytotoxic, single point]
CCC(C(=O)NC(C)(C)C)n1c(-c2ccc(C)cc2)nc2ccccc21 (stereo not drawn)	inactive: -1.13%	
CC(C)C(CCNCc1ccccn1)c1ccc(Cl)cc1 (stereo not drawn)		inconclusive [cytotoxic, partial curve]
CN(CC(=O)Nc1ccccc1Sc1ccccc1)Cc1nc2ccccc2c(=O)[nH]1		inconclusive [cytotoxic, partial curve]
Oc1ccc(/C=C/c2nc(-c3ccccc3O)n(-c3ccccc3)n2)cc1		inconclusive [cytotoxic, single point]
COC(=O)c1ccc(Oc2nc(SC)nc(N(C)C)n2)cc1	inactive: 0.281%	
O=S(=O)(Nc1nc2ccccc2nc1N1CCc2ccccc2C1)c1ccc(Br)cc1		inconclusive [cytotoxic, partial curve]
CCOC(=O)c1[nH]c2ccc(F)cc2c1NC(=O)C(C)N1CCc2cc(OC)c(OC)cc2C1 (stereo not drawn)		active: 16.4 µM
Cc1cc([N+](=O)[O-])nn1CC(=O)N/N=C/c1ccccc1O		inconclusive [cytotoxic, single point]
C[C@@H](c1ccccc1)N1C[C@@H](COCc2ccccc2)Oc2cc(N3CC[C@@H](O)C3)ccc2S1(=O)=O		inconclusive [cytotoxic, single point]
CC1=NN(C(=O)c2ccc(Cn3nc(C)c([N+](=O)[O-])c3C)cc2)C(O)(C(F)(F)F)C1 (stereo not drawn)		active: 1.78 µM
CC(C)CN(C(=O)COC(=O)C(C)N1C(=O)c2ccccc2C1=O)c1c(N)n(Cc2ccccc2)c(=O)[nH]c1=O (stereo not drawn)	inactive: 4.21%	
COc1ccc(-c2c(C#Cc3ccc(N(C)C)cc3)c3ccccc3n2C)cc1	inactive: -11.7%	
